# In the supplement of paper PMC8728848:
# This is one part of the list.
# B1: NanI (Corynebacterium diphtheriae), C6JSW7 (protein)
# chain: MTNTLESNPMTTTTGALTITFATTCDGPLAHIPHHLDLNIIHGRIQGTTAHRRIDAEDPDGLDDGLPHHLCLSVDTTGTHLFIDGYEAFSTTQTEWFDTSELTLNPHGDLTIIDHQILNHAPTPRQARNLAPAAEPLVWFAGSHLSTRDTQRISHLTHGSLRLLMKTRGTGQGGVAFQAHTINGDLTLEIIDGTLIFSVRCHDEDYVRITAPGRWDDGQIYDVVIVCGRGATDIYVDGQQLIHSPGAAFFNDLSGELSVHIGTAASGVRLFGEVQSGMIYPHVFNHHQVQRLATVEPIATQALFDCLLDGAQSYRIPSLITTDSGVIIAGADKRVSIANDAPNDIDFVLRRSVDGGRTWQPPRTILQLPDTACVTDSVLLQDHTTGRIFAFLDQFPAGIGQPNAAFGTGFDADGNRIGHFADGSTCTMPREVDQLEASFFSDPHTAPPGIVFQHPSCHLWMLTSDDDGLTWSTPRDLTPDVKEEWMRFCGTSPGNGIQLQRDTHAGRLLIPMYYTKGDQFFAAALYSDDHGDTWHRGESPDLEMYESTLVEASDGSVLLWARNQHPSGAVAHARSTDGGHSWSQVTFNPNVPEIFSQPNALRVTNPDGIIFANASQLLPFRGRGVLRMSTNDGASWQHNRVFNPRHYVYQCMTQLPDGSIGLLWEREMQGLFFSIIPMTWIMQGYAL
# Experiments:
# Experiment in all cases: glycan array binding signal (z-score within array); higher = stronger binding
# Details in all cases: glycan notation: IUPAC condensed, linker removed
# [1] = target: Fuc(a1-2)[GalNAc(a1-3)]Gal(b1-4)Glc
# Summary of the method: (§1)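 Arrays were curated from the Consortium for Functional Glycomics database, 3228 in total, and kept only where the protein sequence was available. Binding is expressed as a within-array Z-score. This score was averaged across arrays of the same protein sequence at different concentrations or buffers and across linkers, and negative values can be read as non-binding.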
# [2] = target: Fuc(a1-2)[GalNAc(a1-3)]Gal(b1-4)GlcNAc
# Summary of the method: as §1
# [3] = target: Fuc(a1-2)[GalNAc(a1-3)]Gal(b1-4)GlcNAc(b1-2)Man(a1-3)[Fuc(a1-2)[GalNAc(a1-3)]Gal(b1-4)GlcNAc(b1-2)Man(a1-6)]Man(b1-4)GlcNAc(b1-4)GlcNAc
# Summary of the method: as §1
# [4] = target: Fuc(a1-2)[GalNAc(a1-3)]Gal(b1-4)GlcNAc(b1-2)Man(a1-3)[Fuc(a1-2)[GalNAc(a1-3)]Gal(b1-4)GlcNAc(b1-2)Man(a1-6)]Man(b1-4)GlcNAc(b1-4)[Fuc(a1-6)]GlcNAc
# Summary of the method: as §1
# [5] = target: Fuc(a1-2)[GalNAc(a1-3)]Gal(b1-4)GlcNAc(b1-3)Gal(b1-4)GlcNAc
# Summary of the method: as §1
# [6] = target: Fuc(a1-2)[GalNAc(a1-3)]Gal(b1-4)GlcNAc(b1-3)Gal(b1-4)GlcNAc(b1-3)Gal(b1-4)GlcNAc
# Summary of the method: as §1
# [7] = target: Fuc(a1-2)[GalNAc(a1-3)]Gal(b1-4)GlcNAc(b1-3)GalNAc
# Summary of the method: as §1
# [8] = target: Fuc(a1-2)[GalNAc(a1-3)]Gal(b1-4)[Fuc(a1-3)]GlcNAc
# Summary of the method: as §1
# [9] = target: Fuc(a1-2)[GalNAc(a1-3)]Gal(b1-4)[Fuc(a1-3)]GlcNAc(b1-3)GalNAc
# Summary of the method: as §1
# [10] = target: Fuc(a1-2)[GalNAc(a1-4)]Gal(b1-4)GlcNAc
# Summary of the method: as §1
# [11] = target: Fuc(a1-2)[GalNAc(b1-3)]Gal
# Summary of the method: as §1
# [12] = target: Fuc(a1-3)GlcNAc
# Summary of the method: as §1
# [13] = target: Fuc(a1-3)[Gal(b1-4)]Glc6S
# Summary of the method: as §1
# [14] = target: Fuc(a1-3)[Gal(b1-4)]GlcNAc
# Summary of the method: as §1
# [15] = target: Fuc(a1-3)[Gal(b1-4)]GlcNAc(b1-2)Man(a1-3)[Fuc(a1-3)[Gal(b1-4)]GlcNAc(b1-2)Man(a1-6)]Man(b1-4)GlcNAc(b1-4)GlcNAc
# Summary of the method: as §1
# [16] = target: Fuc(a1-3)[Gal(b1-4)]GlcNAc(b1-2)Man(a1-3)[Fuc(a1-3)[Gal(b1-4)]GlcNAc(b1-2)Man(a1-6)]Man(b1-4)GlcNAc(b1-4)[Fuc(a1-6)]GlcNAc
# Summary of the method: as §1
# [17] = target: Fuc(a1-3)[Gal(b1-4)]GlcNAc(b1-3)Gal(b1-3)[Fuc(a1-4)]GlcNAc
# Summary of the method: as §1
# [18] = target: Fuc(a1-3)[Gal(b1-4)]GlcNAc(b1-3)GalNAc
# Summary of the method: as §1
# [19] = target: Fuc(a1-3)[Gal(b1-4)]GlcNAc(b1-4)Gal(b1-4)[Fuc(a1-3)]GlcNAc
# Summary of the method: as §1
# [20] = target: Fuc(a1-3)[Gal(b1-4)]GlcNAc(b1-4)Gal(b1-4)[Fuc(a1-3)]GlcNAc(b1-4)Gal(b1-4)[Fuc(a1-3)]GlcNAc
# Summary of the method: as §1
# [21] = target: Fuc(a1-3)[Gal(b1-4)]GlcNAc(b1-6)GalNAc
# Summary of the method: as §1
# [22] = target: Fuc(a1-3)[Gal(b1-4)]GlcNAc(b1-6)[Gal(b1-3)GlcNAc(b1-3)]Gal(b1-4)Glc
# Summary of the method: as §1
# [23] = target: Fuc(a1-3)[Gal(b1-4)]GlcNAc(b1-6)[Neu5Ac(a2-3)Gal(b1-3)]GalNAc
# Summary of the method: as §1
# [24] = target: Fuc(a1-3)[Gal(b1-4)]GlcNAc6S
# Summary of the method: as §1
# [25] = target: Fuc(a1-3)[Gal3S(b1-4)]GlcNAc
# Summary of the method: as §1
# [26] = target: Fuc(a1-3)[Gal3S(b1-4)]GlcNAc6S
# Summary of the method: as §1
# [27] = target: Fuc(a1-3)[GalNAc(b1-4)]GlcNAc
# Summary of the method: as §1
# [28] = target: Fuc(a1-4)GlcNAc
# Summary of the method: as §1
# [29] = target: Fuc(b1-3)GlcNAc
# Summary of the method: as §1
# [30] = target: Gal(a1-2)Gal
# Summary of the method: as §1
# [31] = target: Gal(a1-3)Gal
# Summary of the method: as §1
# [32] = target: Gal(a1-3)Gal(b1-3)GlcNAc
# Summary of the method: as §1
# [33] = target: Gal(a1-3)Gal(b1-3)GlcNAc(b1-2)Man(a1-3)[Gal(a1-3)Gal(b1-3)GlcNAc(b1-2)Man(a1-6)]Man(b1-4)GlcNAc(b1-4)GlcNAc
# Summary of the method: as §1
# [34] = target: Gal(a1-3)Gal(b1-3)GlcNAc(b1-3)GalNAc
# Summary of the method: as §1
# [35] = target: Gal(a1-3)Gal(b1-3)[Fuc(a1-4)]GlcNAc(b1-2)Man(a1-3)[Gal(a1-3)Gal(b1-3)[Fuc(a1-4)]GlcNAc(b1-2)Man(a1-6)]Man(b1-4)GlcNAc(b1-4)GlcNAc
# Summary of the method: as §1
# [36] = target: Gal(a1-3)Gal(b1-4)Glc
# Summary of the method: as §1
# [37] = target: Gal(a1-3)Gal(b1-4)GlcNAc
# Summary of the method: as §1
# [38] = target: Gal(a1-3)Gal(b1-4)GlcNAc(b1-3)GalNAc
# Summary of the method: as §1
# [39] = target: Gal(a1-3)Gal(b1-4)[Fuc(a1-3)]GlcNAc
# Summary of the method: as §1
# [40] = target: Gal(a1-3)Gal(b1-4)[Fuc(a1-3)]GlcNAc(b1-2)Man(a1-3)[Gal(a1-3)Gal(b1-4)[Fuc(a1-3)]GlcNAc(b1-2)Man(a1-6)]Man(b1-4)GlcNAc(b1-4)GlcNAc
# Summary of the method: as §1
# [41] = target: Gal(a1-3)GalNAc
# Summary of the method: as §1
# [42] = target: Gal(a1-3)[Gal(a1-4)]Gal(b1-4)GlcNAc
# Summary of the method: as §1
# [43] = target: Gal(a1-4)Gal(b1-3)GlcNAc(b1-2)Man(a1-3)[Gal(a1-4)Gal(b1-3)GlcNAc(b1-2)Man(a1-6)]Man(b1-4)GlcNAc(b1-4)GlcNAc
# Summary of the method: as §1
# [44] = target: Gal(a1-4)Gal(b1-4)Glc
# Summary of the method: as §1
# [45] = target: Gal(a1-4)Gal(b1-4)GlcNAc
# Summary of the method: as §1
# [46] = target: Gal(a1-4)Gal(b1-4)GlcNAc(b1-2)Man(a1-3)[Gal(a1-4)Gal(b1-4)GlcNAc(b1-2)Man(a1-6)]Man(b1-4)GlcNAc(b1-4)GlcNAc
# Summary of the method: as §1
# [47] = target: Gal(a1-4)Gal(b1-4)GlcNAc(b1-3)Gal(b1-4)Glc
# Summary of the method: as §1
# [48] = target: Gal(a1-4)GlcNAc
# Summary of the method: as §1
# [49] = target: Gal(a1-6)Glc
# Summary of the method: as §1
# [50] = target: Gal(b1-2)Gal
# Summary of the method: as §1
# [51] = target: Gal(b1-3)Gal
# Summary of the method: as §1
# [52] = target: Gal(b1-3)Gal(b1-4)GlcNAc
# Summary of the method: as §1
# [53] = target: Gal(b1-3)Gal(b1-4)GlcNAc(b1-2)Man(a1-3)[Gal(b1-3)Gal(b1-4)GlcNAc(b1-2)Man(a1-6)]Man(b1-4)GlcNAc(b1-4)GlcNAc
# Summary of the method: as §1
# [54] = target: Gal(b1-3)GalNAc
# Summary of the method: as §1
# [55] = target: Gal(b1-3)GalNAc(a1-3)[Fuc(a1-2)]Gal(b1-4)Glc
# Summary of the method: as §1
# [56] = target: Gal(b1-3)GalNAc(a1-3)[Fuc(a1-2)]Gal(b1-4)GlcNAc
# Summary of the method: as §1
# [57] = target: Gal(b1-3)GalNAc(b1-3)Gal(a1-4)Gal(b1-4)Glc
# Summary of the method: as §1
# [58] = target: Gal(b1-3)GalNAc(b1-4)Gal(b1-4)Glc
# Summary of the method: as §1
# [59] = target: Gal(b1-3)GalNAc(b1-4)[Neu5Ac(a2-3)]Gal(b1-4)Glc
# Summary of the method: as §1
# [60] = target: Gal(b1-3)GlcNAc
# Summary of the method: as §1
binder,measurement,setting,value
B1,glycan array binding signal (z-score),[1],0.192
same,glycan array binding signal (z-score),[2],-0.437
same,glycan array binding signal (z-score),[3],-0.223
same,glycan array binding signal (z-score),[4],0.626
same,glycan array binding signal (z-score),[5],0.289
same,glycan array binding signal (z-score),[6],0.386
same,glycan array binding signal (z-score),[7],-0.468
same,glycan array binding signal (z-score),[8],-0.117
same,glycan array binding signal (z-score),[9],3.26
same,glycan array binding signal (z-score),[10],-0.77
same,glycan array binding signal (z-score),[11],-1.17
same,glycan array binding signal (z-score),[12],-0.875
same,glycan array binding signal (z-score),[13],-0.552
same,glycan array binding signal (z-score),[14],-0.556
same,glycan array binding signal (z-score),[15],-0.135
same,glycan array binding signal (z-score),[16],4.32
same,glycan array binding signal (z-score),[17],-0.296
same,glycan array binding signal (z-score),[18],0.87
same,glycan array binding signal (z-score),[19],1.03
same,glycan array binding signal (z-score),[20],-1.05
same,glycan array binding signal (z-score),[21],3.36
same,glycan array binding signal (z-score),[22],0.74
same,glycan array binding signal (z-score),[23],-0.326
same,glycan array binding signal (z-score),[24],0.132
same,glycan array binding signal (z-score),[25],-0.129
same,glycan array binding signal (z-score),[26],-0.146
same,glycan array binding signal (z-score),[27],-0.164
same,glycan array binding signal (z-score),[28],-0.037
same,glycan array binding signal (z-score),[29],-0.406
same,glycan array binding signal (z-score),[30],-0.646
same,glycan array binding signal (z-score),[31],-0.906
same,glycan array binding signal (z-score),[32],0.012
same,glycan array binding signal (z-score),[33],0.294
same,glycan array binding signal (z-score),[34],-0.661
same,glycan array binding signal (z-score),[35],0.116
same,glycan array binding signal (z-score),[36],-0.299
same,glycan array binding signal (z-score),[37],-0.25
same,glycan array binding signal (z-score),[38],-0.278
same,glycan array binding signal (z-score),[39],-1.04
same,glycan array binding signal (z-score),[40],1.26
same,glycan array binding signal (z-score),[41],-0.16
same,glycan array binding signal (z-score),[42],-0.388
same,glycan array binding signal (z-score),[43],-0.243
same,glycan array binding signal (z-score),[44],0.553
same,glycan array binding signal (z-score),[45],-0.651
same,glycan array binding signal (z-score),[46],0.804
same,glycan array binding signal (z-score),[47],-0.764
same,glycan array binding signal (z-score),[48],-0.058
same,glycan array binding signal (z-score),[49],-0.551
same,glycan array binding signal (z-score),[50],-0.036
same,glycan array binding signal (z-score),[51],0.381
same,glycan array binding signal (z-score),[52],0.247
same,glycan array binding signal (z-score),[53],0.865
same,glycan array binding signal (z-score),[54],-0.154
same,glycan array binding signal (z-score),[55],-0.472
same,glycan array binding signal (z-score),[56],-0.733
same,glycan array binding signal (z-score),[57],-0.183
same,glycan array binding signal (z-score),[58],-0.45
same,glycan array binding signal (z-score),[59],-0.921
same,glycan array binding signal (z-score),[60],-0.5
